Paper PMC4336329 (PLoS ONE, 2015)
The whole screen tested about 310,000 compounds, of which about 14,000 (4.5%) showed an effect of 50% or more. Effects have a minus sign here. The list shows a part of the results.

target: human ether-à-go-go-related gene (hERG) potassium channel (human, UniProt Q12809); assay: primary screen, population patch clamp on CHO cells stably expressing hERG
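Note: peak tail current of the secondary pulse compared with the same well before compound.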

human ether-à-go-go-related gene (hERG) potassium channel, sequence (Q12809 whole entry, looked up): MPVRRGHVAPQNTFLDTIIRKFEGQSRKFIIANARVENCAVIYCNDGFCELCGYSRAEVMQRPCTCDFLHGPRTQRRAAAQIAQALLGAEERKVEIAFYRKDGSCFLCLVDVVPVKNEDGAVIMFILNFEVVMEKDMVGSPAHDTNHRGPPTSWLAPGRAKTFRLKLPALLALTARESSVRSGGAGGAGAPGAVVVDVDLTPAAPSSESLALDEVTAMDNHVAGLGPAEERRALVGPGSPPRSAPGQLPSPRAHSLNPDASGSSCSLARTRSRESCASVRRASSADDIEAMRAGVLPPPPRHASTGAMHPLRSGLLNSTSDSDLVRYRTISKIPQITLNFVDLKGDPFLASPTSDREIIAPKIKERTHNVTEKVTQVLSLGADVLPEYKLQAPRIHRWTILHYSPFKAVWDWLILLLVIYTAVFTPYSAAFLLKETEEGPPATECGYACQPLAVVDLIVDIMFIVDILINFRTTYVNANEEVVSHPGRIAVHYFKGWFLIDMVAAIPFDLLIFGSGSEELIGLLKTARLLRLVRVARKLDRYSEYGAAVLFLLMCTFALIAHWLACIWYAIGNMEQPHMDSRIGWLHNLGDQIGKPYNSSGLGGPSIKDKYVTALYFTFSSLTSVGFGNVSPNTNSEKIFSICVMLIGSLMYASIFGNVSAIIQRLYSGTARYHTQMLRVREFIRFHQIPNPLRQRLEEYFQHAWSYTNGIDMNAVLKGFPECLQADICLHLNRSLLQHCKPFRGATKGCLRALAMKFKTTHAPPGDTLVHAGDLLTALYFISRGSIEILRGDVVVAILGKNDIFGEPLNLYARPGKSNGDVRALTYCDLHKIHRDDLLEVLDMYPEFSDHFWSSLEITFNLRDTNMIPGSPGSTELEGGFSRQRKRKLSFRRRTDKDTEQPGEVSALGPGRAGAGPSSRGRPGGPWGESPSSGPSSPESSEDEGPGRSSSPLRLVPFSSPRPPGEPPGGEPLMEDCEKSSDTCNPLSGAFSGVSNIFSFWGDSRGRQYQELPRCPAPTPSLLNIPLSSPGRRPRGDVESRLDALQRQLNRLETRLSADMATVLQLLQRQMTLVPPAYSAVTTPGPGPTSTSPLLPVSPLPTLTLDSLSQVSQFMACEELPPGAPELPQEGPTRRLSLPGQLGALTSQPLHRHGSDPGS

Compound	hERG current change (%, negative = inhibition) at 10uM [%]
CCOC(=O)c1c(NC(=O)C2COc3ccccc3O2)sc(C(C)=O)c1C (centres unmarked)	2.83
O=C(Nc1ccc(S(=O)(=O)NCCc2ccccc2)cc1)c1ccco1	-0.611
CC(NC(=O)C1CCC(C(=O)NC(C)c2ccccc2)CC1)c1ccccc1 (centres unmarked)	22.9
Cc1noc(C(=O)NCC2CCCO2)c1Cl (centres unmarked)	19.2
CCCCN(Cc1ccco1)S(=O)(=O)c1ccc(-c2ccc(=O)[nH]n2)s1	-27.7
COc1ccc(C(=O)Nc2ccc(N3CCN(C)CC3)cc2)cc1OC	-11.9
CC1(C)CC(NC(=O)C2CCC(=O)N(C3CC3)C2)CC(C)(C)C1 (centres unmarked)	3.61
CCN(CC(=O)Nc1c(F)cccc1F)C(=O)c1cc([N+](=O)[O-])ccc1N1CCCCC1	-10.6
C=CCN(C(=O)c1cccc(C(F)(F)F)c1)C1(C(=O)Nc2ccccc2)CCN(C(C)C)CC1	-23.8
COc1ccc(C(=O)c2c[nH]c(C(=O)NCCCN3CCOCC3)c2)cc1	9.08
Cc1cccnc1NC(=S)NC(=O)/C=C/c1ccco1	11.5
CCC(C)[C@H]1COCCS(=O)(=O)N1Cc1ccc(Br)cc1 (some centres unmarked)	-18.5
COc1ccc(CN2C(=O)c3ccccc3C2C(=O)NCCc2ccccc2)c(OC)c1 (centres unmarked)	-9.73
Cc1cccc(N2CCN(Cc3ccc(Br)o3)CC2)c1C	5.87
COC(=O)Cn1cnc2c(nnn2-c2ccc(C)cc2)c1=O	10.4
COc1ccc(S(=O)(=O)NCC2CCCN(C(=O)C3CCCC3)C2)cc1 (centres unmarked)	-5.41
COC(=O)c1[nH]nc(-c2ccccc2)c1-c1ccccc1	-5.99
COc1ccc(S(=O)(=O)n2ccc(C)n2)cc1C	-1.78
O=C(Cn1ccc([N+](=O)[O-])n1)N1CCCc2ccccc21	-20.4

Compound	hERG current change (%, negative = inhibition) at 10uM [%]
COc1cc(C(=O)Nc2ccc3c(c2)nc(C)n3C)cc(OC)c1OC	15.6
O=c1ccc2cc(S(=O)(=O)Nc3ccc(F)cc3)ccc2o1	-4.44
CC(C)Cc1nnc(NC(=O)c2ccc([N+](=O)[O-])cc2)s1	12.7
COC(=O)c1ccc2c(=O)n(CC3CCCO3)c(SCC(=O)Nc3ccccc3Cl)nc2c1 (centres unmarked)	-13.7
CC1(C)CC(NC(=O)C2CCCCC2)CC(C)(C)N1	9.64
COc1ccc(-c2[nH]c(-c3ccc(C)cc3)nc2SCC(=O)NCc2ccco2)cc1OC	9.39
Cc1ccc(C(=O)Nc2ccc(S(=O)(=O)N3CCOCC3)cc2)cc1	9.64
Cc1cc(N2CCN(c3ccc([N+](=O)[O-])c4cccnc34)CC2)c2ccccc2n1	-64.3
Cc1ccnc(NS(=O)(=O)c2ccc(C(C)(C)C)cc2)c1	-4.12
O=C(c1c(F)cccc1F)N1CCN(c2ncccn2)CC1	1.98
Cn1c(N)c(C(=O)CSc2nnc(C3CC3)n2N)c(=O)n(C)c1=O	-3.45
CCOP(=O)(OCC)C(Nc1ccccn1)c1ccccc1 (centres unmarked)	1.31
N#Cc1c(-c2ccccc2Cl)cc(C2CC2)nc1N	12.2
Nn1cnnc1SCC(=O)N(C1CCCCC1)C1CCCCC1	-0.865
CCCCCn1c(=O)[nH]c2cc(C(=O)N3CCN(CC)CC3)ccc2c1=O	10.1
COc1ccc(NC(=O)ON=C2c3ccccc3-c3ccccc32)cc1	0.872
Br.CCOC(=O)c1c(CSC(=N)N)n(-c2ccc(C)cc2)c2cc(Br)c(OC(C)=O)cc12	-65.4
CC(C)(C)NCCOc1ccc2ccccc2c1	9.51
N#CCSc1nnc(COc2cccc3ccccc23)n1-c1ccccc1	6.77

Compound	hERG current change (%, negative = inhibition) at 10uM [%]
C/C(=N/NC(=O)C(O)(c1ccccc1)c1ccccc1)c1ccc([N+](=O)[O-])o1	-71.6
O=C(Cn1c(=O)oc2ccccc21)N1CCCC1	14.4
COc1ccc(-c2csc(Nc3ccc(C)cn3)n2)cc1OC	-6.35
O=C(CN(Cc1ccco1)C(=O)CNS(=O)(=O)c1ccc(F)cc1)NCCc1ccccc1	-18.5
CCN(CCn1cccn1)Cc1cn[nH]c1-c1ccc(OC)cc1F	-35.7
COC(=O)C(NC(=O)c1ccc(Cl)cc1)(Nc1nc(C)cs1)C(F)(F)F (centres unmarked)	-8.63
COc1cc(C(=S)N2CCOCC2)cc(OC)c1OC(=O)c1cc([N+](=O)[O-])c(C)c([N+](=O)[O-])c1	7.72
CC(C)CN(C(=O)COC(=O)c1cnc(Cl)c(Cl)c1)c1c(N)n(Cc2ccccc2)c(=O)[nH]c1=O	5.35
COc1cc(C2/C(=C(\O)c3ccc4c(c3)OCCO4)C(=O)C(=O)N2Cc2ccco2)cc(OC)c1OC (centres unmarked)	15.8
CCc1ccccc1NC(=O)c1cnc2scc(C)n2c1=O	-4.49
CN(CC(=O)Nc1ccc(S(N)(=O)=O)cc1)Cc1ccccc1F	0.68
Cc1ccc(NC2=C(Cl)C(=O)OC2NC(=O)c2ccccc2)cc1 (centres unmarked)	0.653
CCNC(=O)N1c2ccc(OC)cc2C(C)=CC1(C)C	9.38
COc1cccc(C(=O)Nn2c(C)nnc2-n2nc(C)cc2C)c1	-16.8
CCc1ccc(NC(=S)Nc2ccc(S(=O)(=O)Nc3ncccn3)cc2)cc1	14
Cc1cccc(NC(=O)C2CCN(S(=O)(=O)c3cccs3)CC2)n1	-25
CC(=O)Nc1cccc(/C(C)=N/NC(N)=S)c1	11.2
Fc1ccc(CNCc2ccc(Br)cc2)cc1	-28.5
